# Experimental data as given in PubChem BioAssay AID1347073 (National Center for Advancing Translational Sciences (NCATS), 2019).
# The whole screen tested about 45,000 compounds, of which about 200 (0.44%) were called active. Not shown: some 7% with an inconclusive outcome. Calls come from the whole dose curve; as a rule, active = well fitted activation curve with a large enough effect; inconclusive = small, poorly fitted or top-dose-only effect; inactive = no such curve, though single readings can be large or run the other way. Some of the results follow. Peptide text beside a SMILES is read from it. * marks the point of attachment. Boc = CC(C)(C)OC(=O)*; Bn = c1ccc(C*)cc1; NHNH2 = NN*
# Assay: qHTS of TDP-43 Inhibitors: NCGC Sytravon Library Screen; note: 0% is about no effect; nearly all actives have a fitted effect of over 55% in size
# Details: yeast TDP-43 toxicity rescue, BacTiter-Glo growth, 24 h; series mostly up to 46.1 µM; growth rescue (activation): at the top concentration
# Procedure, shortened: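 TDP-43-expressing yeast, pregrown in raffinose, seeded at OD600 0.02 in galactose medium with compound for 24 hr at 30 deg C. Growth read by BacTiter-Glo luminescence, so rescue of toxicity appears as activation.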
row,Structure (SMILES),growth rescue (activation)
1,COc1ccc(C2=NN(CC(=O)Nc3ccccc3C)C(=O)CC2)cc1,inactive: 36.2%
2,COc1ccc(CCN(C)C2CCCN(C(=O)Cn3cnnn3)C2)cc1OC (configuration not stated),inactive: 2.83%
3,CC(C)C1N(C(=O)N(C)C)CCN1S(=O)(=O)c1ccccc1 (configuration not stated),inactive: 15.2%
4,O=C(Nc1nncs1)C12CC3CC(CC(C3)C1)C2,inactive: 21.7%
5,Cc1ccc2nsnc2c1NC(=O)c1sc2ccccc2c1Cl,inactive: 14.9%
6,CC(C)CNC(=O)c1cccc(NC(=O)CSc2ccc(Cl)cc2)c1,inactive: 27.9%
7,CCc1ccc(NC(=O)N[C@H](C(=O)O)C(C)CC)cc1 (some centres not stated),inactive: 18.8%
8,O=C(Cc1ccc([N+](=O)[O-])cc1)NCc1ccccn1,inactive: 1.45%
9,CS(=O)(=O)N1CCN(c2ccnc3cc(Cl)ccc23)CC1,inactive: -32.3%
10,CCOC(=O)C(CC(=O)Nc1nc(C(C)=O)c(C)s1)C(C)c1ccccc1 (configuration not stated),inactive: 17.2%
11,COCC(C)NC(=O)c1cc(OC)cc(OC)c1 (configuration not stated),inactive: -7.62%
12,Cc1oc(-c2cccs2)nc1CN1CCN(C(C)C)C(CCO)C1 (configuration not stated),inactive: 17.2%
13,NS(=O)(=O)c1ccc(CCNC(=O)c2cc([N+](=O)[O-])ccc2N2CCCCC2)cc1,inactive: 14.8%
14,CNC(=O)CN(c1cc([N+](=O)[O-])ccc1OC)S(C)(=O)=O,inactive: -9.44%
15,Nc1nc(-c2ccc(-c3ccccc3)cc2)cs1,inactive: -33%
16,Cc1nn(C)cc1C(=O)/C=C/c1ccc([N+](=O)[O-])cc1,inactive: 10.4%
17,C/C(=N\Nc1ccc(Cl)c(C(=O)O)c1)c1ccc[nH]1,inactive: -2.96%
18,O=C(CSc1ncnc2sccc12)NC1CCS(=O)(=O)C1 (configuration not stated),inactive: -3.71%
19,CC(C)C(=O)NNS(=O)(=O)c1ccccc1[N+](=O)[O-],inactive: 4.8%
20,CN(C)c1ccc(C(O)P(=O)(OCc2ccccc2)c2ccc(N(C)C)cc2)cc1 (configuration not stated),inactive: -9.39%
21,O=C(c1ccc(Cl)c([N+](=O)[O-])c1)N1CCN(c2ccccc2)CC1,inactive: -43.8%
22,COc1ccc(-n2nc(C(=O)NCC(=O)N3CCC(C(N)=O)CC3)c3ccccc3c2=O)cc1,inactive: 2.71%

row,Structure (SMILES),growth rescue (activation)
1,CC(NC(=O)c1cc(=O)[nH]c2ccccc12)c1ccc(F)cc1F (configuration not stated),inactive: -5.75%
2,Cc1cccc(-c2ccc(NC(=O)C3CCN(CC4CC4)CC3)cc2)c1,inactive: 11.8%
3,Cc1cccc(S(=O)(=O)NC(=O)C2(C)CCN2C(=O)c2cccc(F)c2)c1 (configuration not stated),inactive: -3.89%
4,CCCC(CCC(=O)Nc1ccn(-c2ccccc2)n1)C(=O)O (configuration not stated),inactive: -14.4%
5,CCOP(=O)(c1ccccc1)C(O)c1ccc(Br)cc1 (configuration not stated),inactive: 4.41%
6,CC1(c2ccc(Cl)c(Cl)c2)NC(=S)N2C1NC(=S)N2c1ccccc1 (configuration not stated),inactive: 24%
7,CC[n+]1c(/C=C/c2ccc(N(C)C)cc2)ccc2ccccc21,inactive: -49.8%
8,Cc1ccccc1NC(=O)C(=O)NCCCN1CCOCC1,inactive: 1.79%
9,COc1ccc(-c2cc(C(=O)Nc3cccnc3Cl)no2)cc1OC,inactive: -6.44%
10,C/C(CC(=O)Nc1cc(C)ccn1)=N\NC(=O)c1cccc(F)c1,inactive: -9.95%
11,S=C(Nc1cccnc1)NC1CCCC1,inactive: 2.68%
12,Cc1c(CC(=O)NCCC(=O)O)c(=O)oc2cc3occ(-c4ccccc4)c3cc12,inactive: 10.5%
13,C=CCOc1ccc(/C=N/N2C(=O)C(CC(=O)Nc3ccc(F)cc3F)SC2=NC)cc1 (configuration not stated),inactive: 29.2%
14,CN(C)/C=N/C(=S)Nc1ccc(Br)cc1F,inactive: 28%
15,COc1ccc(S(=O)(=O)N2CCc3ccccc32)cc1C(=O)NCc1ccco1,inactive: 7.25%
16,O=c1[nH]c(C2CCCN(S(=O)(=O)c3ccccc3)C2)nc2c1nnn2Cc1cccc(Cl)c1 (configuration not stated),inactive: -6.67%
17,CC(=O)Nc1ccccc1C(=O)N1CCN(Cc2ccccc2)CC1,inactive: -4.79%
18,CC1(C(=O)OCC(=O)Nc2ccccc2Cl)CC1(Cl)Cl (configuration not stated),inactive: 6.01%
19,CCOc1cc(NC(=S)NCc2ccco2)c(OCC)cc1NC(=O)c1ccco1,inactive: 14.2%
20,COC(=O)C1C(c2ccccc2)NC(=O)NC1(O)C(F)(F)Cl (configuration not stated),inactive: 7.05%
21,O=C(CN1C2CCCC1CC(NC(=O)C1CCCCC1)C2)Nc1ccccc1 (configuration not stated),inactive: 3.14%
22,O=C(NCc1cccs1)C1CCN(S(=O)(=O)c2cccc([N+](=O)[O-])c2)CC1,inactive: 6.17%

row,Structure (SMILES),growth rescue (activation)
1,Cc1nc2c(C(=O)NCc3ccccc3)c[nH]n2c(=O)c1Cc1ccccc1Cl,inactive: -2.65%
2,CC(C)Nc1nnc(SCC(=O)/C=C2\N(C)c3ccccc3C2(C)C)s1,inactive: 26%
3,Cc1ccc(Nc2ccc(C(N)=O)cc2[N+](=O)[O-])cc1,inactive: -18.2%
4,O=C(CN1C2=NCCCN2c2ccccc21)c1cccc(Br)c1,inactive: 0.808%
5,O=c1[nH]c(CSc2ncc(C(F)(F)F)cc2Cl)nc2cc(C(F)(F)F)ccc12,inactive: 33.6%
6,CN(C)Cc1ncccc1Oc1nc2cc(-c3cccc(Cl)c3)sc2c(=O)n1C,inactive: 20.1%
7,COc1ccc(NS(=O)(=O)c2cc(NC(=O)[C@H](C)NC(N)=O)ccc2N2CCCC2)cc1,inactive: 15.2%
8,c1ccc(NCc2ccccn2)cc1,inactive: -8.87%
9,CCCCSc1nc2ccccc2[nH]1,inactive: 2.36%
10,Cc1c(-c2ccc(Cl)cc2)[n+](=O)c2c(n1[O-])CCCC2,inactive: -16.8%
11,O=C(NCCN1CCNC1=O)c1ccc2sc([C@H]3C[C@H](O)[C@@H](CO)O3)nc2c1,inactive: 2.14%
12,c1cc(CN2CCN(C3CCCCCC3)CC2)ccn1,inactive: -10.6%
13,O=S(=O)(c1ccc(F)cc1)N1CCN(C(=S)NCc2ccco2)CC1,inactive: -6.85%
14,O=C(COC(=O)C1CCCCC1)NCCc1ccccc1,inactive: 13.7%
15,COC(=O)C(C)(C)ONC(=O)Nc1ccccc1[N+](=O)[O-],inactive: 24.4%
16,CC(C)c1ccc(NC2CCCN(C(=O)CCN3CCCC3=O)C2)cc1 (configuration not stated),inactive: 3.3%
17,COc1cc(OC)c(OC)cc1/C=C1\CCC/C(=C\c2cc(OC)c(OC)cc2OC)C1=O,inactive: 9.79%
18,CCn1c(SCC(=O)N2c3ccccc3CCc3ccccc32)nnc1-c1ccc(OC)cc1,inactive: 1.04%
19,CCOC(=O)c1ccccc1NC(=O)c1cncc(Br)c1,inactive: 36.6%
20,COc1ccc(Cc2nnc(NS(=O)(=O)c3ccc(Cl)cc3)s2)cc1OC,inactive: 4.82%
21,CC(=O)Nc1sc(-c2ccc(Cl)cc2)nc1-c1ccccc1,inactive: 0.536%
22,COc1ccc(-c2nc3ccc(N4CCCC4)cc3c(=O)[nH]2)cc1OC,inactive: 21.2%

row,Structure (SMILES),growth rescue (activation)
1,CCOc1ccccc1-c1cc(-c2ccc(OC)cc2)nc2c1c(=O)n(C)c(=O)n2C,inactive: -5.26%
2,O=C(C(=O)N1CCOCC1)c1c[nH]c2ccccc12,inactive: 5.56%
3,O=C(O)C1CC=CCC1C(=O)NC1CCCCC1 (configuration not stated),inactive: 10.8%
4,Cc1cc(CNC(=O)COc2cc(F)ccc2[N+](=O)[O-])c2ccccc2n1,inactive: 10.5%
5,CC1CN(C(=O)C(Sc2ccccc2)c2ccccc2)CC(C)O1 (configuration not stated),inactive: 4.83%
6,COC(=O)c1ccc(COc2cccnc2[N+](=O)[O-])cc1,inactive: 22.9%
7,CC1(C)CC(N2CCN(Cc3ccccc3)CC2)=CC(=[N+]2CCCCC2)C1,inactive: -19.3%
8,COc1cccc(CNC(=O)C2CCC(=O)N(CC3CCCCC3)C2)c1OC (configuration not stated),inactive: -7.72%
9,NC(=O)c1ccc(NC(=O)COC(=O)CC23CC4CC(CC(Br)(C4)C2)C3)cc1,inactive: -26.3%
10,O=C(CCc1nnc(C2CCCCC2)o1)N1CCC(Oc2cccnc2)CC1,inactive: 0.829%
11,COc1ccc(S(=O)(=O)NCC(=O)Nc2cccc(C)c2C)cc1OC,inactive: 4.58%
12,Cn1nc(-c2ccc(C(=O)NCCO)cc2)c2ccccc2c1=O,inactive: -18.8%
13,Cc1nnc(SCc2cc(=O)oc3cc(O)ccc23)n1Cc1ccccc1,inactive: 7.12%
14,O=C(COC(=O)/C=C/c1ccc(F)cc1)NCc1ccco1,inactive: 25.6%
15,CCOc1ccccc1NC(=O)CSc1c(C)n[nH]c1C,inactive: 24.8%
16,O=C(CS(=O)CC(=O)N(c1cccc(F)c1)C(C(=O)NC1CCCCC1)c1ccco1)Nc1ccc(F)cc1 (configuration not stated),inactive: -7.73%
17,CCC(c1nnnn1C(C)(C)CC)N1CCN(c2ccccc2F)CC1 (configuration not stated),inactive: -2.93%
18,COc1ccc(S(=O)(=O)N2CCC(C(=O)NCc3ccncc3)CC2)cc1Cl,inactive: -8.24%
19,Cc1ccc(S(=O)(=O)N2CCOCC2)cc1NC(=O)COc1ccccc1Cc1ccccc1,inactive: 21.7%
20,NC(=O)c1ccsc1NC(=O)COC(=O)CCOc1ccccc1,inactive: 17%
21,CCN(CC#CCC(O)(c1ccccc1)c1ccccc1)C(C)C,inactive: -7.27%
22,O=C(CSc1nnc(-c2ccccn2)o1)Nc1ccccc1F,inactive: 6.51%

row,Structure (SMILES),growth rescue (activation)
1,CCOC(=O)c1c(NC(=O)c2cccs2)sc(C(=O)N2CCOCC2)c1C,inactive: 33.3%
2,COc1cc(NC(=O)C2=C(N3CCOCC3)/C(=C\c3ccc(Br)cc3)CC2)cc(OC)c1OC,inactive: -3.72%
3,CC(=O)c1cccc(NC(=O)C(C)OC(=O)c2cc(C)oc2C)c1 (configuration not stated),inactive: 10.3%
4,Cc1ccc(NC(=O)CN2C(=O)NC3(CCCc4ccccc43)C2=O)c(C)c1 (configuration not stated),inactive: -4.19%
5,O=C(Nc1ccc(-c2cn3ccccc3n2)cc1)c1cccs1,inactive: -21.2%
6,COc1ccc(COCC(O)CN(Cc2ccccc2)C(C)C)cc1OC (configuration not stated),inactive: -2.7%
7,O=c1c2ccccc2nc(SCCN2CCOCC2)n1CCc1ccccc1,inactive: 9.49%
8,COc1ccc(NC(=O)c2ccc(-c3ccccc3)cc2)cc1NS(=O)(=O)c1ccc(F)cc1,inactive: 15.6%
9,CC(C)C(NC(=O)c1ccccc1F)C(=O)NCC(c1ccco1)N1CCCCC1 (configuration not stated),inactive: -6.91%
10,CC(O)(c1cccnc1)c1nc(-c2ccc3c(c2)OCO3)cs1 (configuration not stated),inactive: -1.37%
11,O=C(O)C1CCN(C(=O)NC2CCCCC2)CC1,inactive: 20.4%
12,COCC(=O)N1CCC(Oc2ccc(C(=O)NCc3cc(C)n(C)n3)cc2)CC1,inactive: 2.22%
13,NNC(=O)[C@H](Cc1ccccc1)NC(=O)Nc1ccc2c(c1)OCCO2,inactive: -6.65%
14,COc1ccccc1-n1c(SCC(=O)NC2CCS(=O)(=O)C2)nc2cc([N+](=O)[O-])ccc21 (configuration not stated),inactive: 8.73%
15,CC(C)CC(NC(=O)C(COCc1ccccc1)NC(=O)OC(C)(C)C)C(=O)NN (configuration not stated) (Boc-Ser(Bn)-Leu-NHNH2; configuration not given here),inactive: 3.46%
16,CCCc1cc(C(=O)Nc2cc(Cl)ccc2O)no1,inactive: 10.4%
17,CCN1C(=O)c2cccc3c(S(=O)(=O)N4CCCC4C(=O)O)ccc1c23 (configuration not stated),inactive: 3.65%
18,CCOC(=O)c1c(CN2CCOCC2)n(-c2ccccc2)c2cc(Br)c(O)c(CN(C)C)c12,inactive: 2.01%
19,CCOC(=O)CNC(=O)N1CCCC(CCC(=O)NCc2ccc(F)c(F)c2)C1 (configuration not stated),inactive: 11.4%
